Measurements published in the supplement of paper PMC12217912.
The other results are listed elsewhere or left out. The full chains were built here from the parent and the listed change. Values near 0.05 are background.

B1: TEV protease; numbered along this chain (parent)
chain: MGESLFKGPRDYNPISSSICHLTNESDGHTTSLYGIGFGPFIITNKHLFRRNNGTLVVQSLHGVFKVKDTTTLQQHLVDGRDMIIIRMPKDFPPFPQKLKFREPQREERICLVTTNFQTKSMSSMVSDTSCTFPSGDGIFWKHWIQTKDGQCGSPLVSTRDGFIVGIHSASNFTNTNNYFTSVPKNFMELLTNQEAQQWVSGWRLNADSVLWGGHKVFMVKPEEPFQPVKEATQL

Variants of: B1
Experiment: raw area under fraction-flipped curve 0-4 h after induction (AUC4h, not background-subtracted), DNA-recorder readout of cleavage of the substrate (dimensionless); higher = more cleavage of the substrate by the protease variant
Settings: temperature: 34 °C; time window: 0-4 h after rhamnose induction
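Also: Bxb1 expression induced with 0.2% (w/v) L-rhamnose at OD600 near 0.5, cultures sampled hourly, flipped fraction per protease–substrate barcode pair counted by paired-end Illumina sequencing.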

Variant | area with substrate ENLYFQI | area with substrate ENLYFQK | area with substrate ENLYFQM | area with substrate ENLYFQN | area with substrate ENLYFQR | area with substrate ENLYFQS | area with substrate ENLYFQT | area with substrate ENLYFQW | area with substrate ENLYFQL | area with substrate ENLYFQQ
L5I | 0.0439 | 0.0566 | 0.104 | 0.0796 | 0.0502 | 0.126 | 0.0686 | 0.0617 |  | 
K7C | 0.0644 |  |  | 0.0652 | 0.0507 | 0.0936 |  |  | 0.0637 | 0.0958
I110W |  | 0.052 | 0.0573 |  |  | 0.0552 |  |  | 0.0471 | 
M188H |  | 0.0516 |  |  | 0.0553 | 0.105 |  | 0.0418 | 0.0592 | 
S201F |  | 0.0642 |  |  |  | 0.0856 | 0.0621 | 0.0636 |  | 
A170D |  | 0.0648 | 0.0626 |  | 0.0556 | 0.0577 |  |  |  | 0.0642
V210A |  |  |  |  |  | 0.105 |  | 0.0652 | 0.0478 | 
C131G |  |  |  | 0.0766 | 0.0585 | 0.087 |  | 0.0635 | 0.0601 | 
T159W |  |  |  | 0.0712 |  | 0.104 |  |  | 0.0584 | 
G214H |  |  |  | 0.0664 | 0.0582 | 0.0939 |  |  | 0.0452 | 
N206M |  |  | 0.0897 | 0.0837 |  | 0.104 | 0.0693 |  |  | 
V78Q |  |  |  | 0.0565 |  | 0.0714 |  |  |  | 
C131L |  |  |  | 0.0798 |  | 0.103 |  |  |  | 
F163G |  |  |  | 0.123 |  | 0.115 |  |  |  | 
P9T |  |  |  |  | 0.0623 | 0.0954 |  | 0.0725 |  | 
A196C |  |  |  |  |  | 0.0964 | 0.0802 |  |  | 
Q97V |  |  |  |  |  | 0.0931 |  |  |  | 
N193V |  |  |  |  |  | 0.0994 |  |  |  | 

Same assay, conditions: temperature: 34 °C; time window: 0-4 h after rhamnose induction

Variant | area with substrate ENLYFQV | area with substrate ENLYFQY | area with substrate ENLYFQP
I110W | 0.0609 | 0.0376 | 
M188H | 0.0498 | 0.0918 | 
V210A |  |  | 0.0522
C131G |  | 0.0809 | 0.0494
G214H | 0.0458 | 0.0505 | 
V78Q |  |  | 0.0533
C131L | 0.036 |  | 
F163G | 0.0593 | 0.0681 | 
P9T |  | 0.1 | 
